Test results: patent US20080280910A1, “PHTHALAZINONE DERIVATIVES” (priority 2007, published 2008)

Molecular target: Mammalian PARP, isolated from Hela cell nuclear extract (Homo sapiens, UniProt P09874)
Assay: PARP inhibition assay (FlashPlate, 3H-NAD incorporation) to determine IC50
Assay type: biochemical
Details: mean IC50
Experimental: In order to assess the inhibitory action of the compounds, the following assay was used to determine IC50 values (Dillon, et al., JBS., 8(3), 347-352 (2003)).
All compounds were diluted in DMSO and gave final assay concentrations of between 10 and 0.01 μM, with the DMSO being at a final concentration of 1% per well. The total assay volume per well was 40 μL.
After 10 minutes incubation at 30° C. the reactions were initiated by the addition of a 10 μl reaction mixture, containing NAD (5 μM), ^3H-NAD and 30mer double stranded DNA-oligos. Designated positive and negative reaction wells were done in combination with compound wells (unknowns) in order to calculate % enzyme activities. The plates were then shaken for 2 minutes and incubated at 30° C. for 45 minutes.
Following the incubation, the reactions were quenched by the addition of 50 μl 30% acetic acid to each well. The plates were then shaken for 1 hour at room temperature.
The plates were transferred to a TopCount NXT (TRADE MARK) (Packard, UK) for scintillation counting. Values recorded are counts per minute (cpm) following a 30 second counting of each well.
The % enzyme activity for each compound is then calculated using the following equation: […]
IC50 values (the concentration at which 50% of the enzyme activity is inhibited) were calculated, which are determined over a range of different concentrations, normally from 10 μM down to 0.001 μM. Such IC50 values are used as comparative values to identify increased compound potencies.

| IC50 [µM] | SMILES |
| --- | --- |
| 0.031 | Cc1cc(C(=O)Nc2cccc(-c3cc(Cc4n[nH]c(=O)c5ccccc45)ccc3F)c2)n(C)n1 [Compound 138] |
| 0.039 | O=C(Nc1cccc(-c2cc(Cc3n[nH]c(=O)c4ccccc34)ccc2F)c1)c1cccnc1F [Compound 139] |
| 0.019 | CCCCS(=O)(=O)Nc1cccc(-c2cc(Cc3n[nH]c(=O)c4ccccc34)ccc2F)c1 [Compound 152] |
| 0.089 | O=c1[nH]nc(Cc2ccc(F)c(-c3ccc(F)cc3)c2)c2ccccc12 [Compound 54] |
| 0.067 | O=c1[nH]nc(Cc2ccc(F)c(-c3ccc4c(c3)OCCCO4)c2)c2ccccc12 [Compound 88] |
| 1.07 | Nc1cccc2c(Cc3ccc(F)c(-c4ccco4)c3)n[nH]c(=O)c12 [Compound 270, 8-Amino-4-(4-fluoro-3-furan-2-yl-benzyl)-2H-phthalazin-1-one] |
| 0.125 | O=C(c1cccc(-c2cc(Cc3n[nH]c(=O)c4ccccc34)ccc2F)c1)N1CCc2ccccc2C1 [Compound 123] |
| 0.338 | COc1ccc(-c2cc(Cc3n[nH]c(=O)c4ccccc34)ccc2F)cc1F [Compound 89] |
| 0.029 | O=c1[nH]nc(Cc2ccc(F)c(-c3cccc(CO)c3)c2)c2ccccc12 [Compound 51] |
| 0.041 | O=c1[nH]nc(Cc2ccc(F)c(-c3ccsc3)c2)c2ccccc12 [Compound 49] |
| 0.026 | O=C(Nc1cccc(-c2cc(Cc3n[nH]c(=O)c4ccccc34)ccc2F)c1)c1ccco1 [Compound 129] |
| 0.062 | O=c1[nH]nc(Cc2ccc(F)c(-c3cccc4c3CCO4)c2)c2ccccc12 [Compound 72] |
| 1.13 | Cc1cccc(-c2cc(Cc3n[nH]c(=O)c4ccccc34)ccc2F)c1C [Compound 93] |
| 0.097 | O=C(c1ccc(-c2cc(Cc3n[nH]c(=O)c4ccccc34)ccc2F)cc1)N1CCc2ccccc2C1 [Compound 223] |
| 1.02 | CN1CCN(C(=O)c2cccc(-c3cc(Cc4n[nH]c(=O)c5ccccc45)ccc3F)c2)CC1 [Compound 120] |
| 0.041 | CN1CCN(Cc2ccc(-c3cc(Cc4n[nH]c(=O)c5ccccc45)ccc3F)o2)CC1 [Compound 235] |

| IC50 [µM] | SMILES |
| --- | --- |
| 0.003 | O=c1[nH]nc(Cc2ccc(F)c(-c3ccc(NS(=O)(=O)CC4CC4)cc3)c2)c2ccccc12 [Compound 248] |
| 0.114 | COc1ccc(-c2cc(Cc3n[nH]c(=O)c4ccccc34)ccc2F)cc1 [Compound 64] |
| 0.071 | O=c1[nH]nc(Cc2ccc(F)c(-c3ccc(CN4CCc5ccccc5C4)o3)c2)c2ccccc12 [Compound 234] |
| 0.041 | O=c1[nH]nc(Cc2ccc(F)c(-c3cccc(NS(=O)(=O)c4cccs4)c3)c2)c2ccccc12 [Compound 156] |
| 0.912 | O=C(c1cccc(-c2cc(Cc3n[nH]c(=O)c4ccccc34)ccc2F)c1)N1CCN(CCO)CC1 [Compound 118] |
| 0.275 | COCc1ccc(-c2cc(Cc3n[nH]c(=O)c4ccccc34)ccc2F)cc1 [Compound 87] |
| 0.72 | O=Cc1ccc(-c2cc(Cc3n[nH]c(=O)c4ccccc34)ccc2F)c2ccccc12 [Compound 69] |
| 0.904 | NC(=O)c1ccccc1-c1cc(Cc2n[nH]c(=O)c3ccccc23)ccc1F [Compound 65] |
| 0.389 | COc1ccccc1-c1cc(Cc2n[nH]c(=O)c3ccccc23)ccc1F [Compound 90] |
| 0.011 | Nc1cccc2c(=O)[nH]nc(Cc3ccc(F)c(-c4ccco4)c3)c12 [Compound 269, 5-Amino-4-(4-fluoro-3-furan-2-yl-benzyl)-2H-phthalazin-1-one] |
| 0.547 | CN1CCCN(C(=O)c2cccc(-c3cc(Cc4n[nH]c(=O)c5ccccc45)ccc3F)c2)CC1 [Compound 119] |
| 0.088 | O=C(Nc1cccc(-c2cc(Cc3n[nH]c(=O)c4ccccc34)ccc2F)c1)NC1CCCCC1 [Compound 162] |
| 0.064 | O=c1[nH]nc(Cc2ccc(F)c(-c3ccc4c(c3)OCCO4)c2)c2ccccc12 [Compound 71] |
| 0.021 | Cc1occc1C(=O)Nc1cccc(-c2cc(Cc3n[nH]c(=O)c4ccccc34)ccc2F)c1 [Compound 132] |
| 1.3 | CC(=O)Nc1ccccc1-c1cc(Cc2n[nH]c(=O)c3ccccc23)ccc1F [Compound 92] |

The next lines start with the compound.

| SMILES | IC50 [µM] |
| --- | --- |
| O=c1[nH]nc(Cc2ccc(F)c(-c3cccc(NS(=O)(=O)c4ccccc4)c3)c2)c2ccccc12 [Compound 147] | 0.053 |
| O=C(c1cccc(-c2cncc(Cc3n[nH]c(=O)c4ccccc34)c2)c1)N1CCSCC1 [Compound 113] | 1.26 |
| O=c1[nH]nc(Cc2cccc(-c3cccc(CO)c3)c2)c2ccccc12 [Compound 42] | 0.06 |
| Cc1noc(C)c1S(=O)(=O)Nc1ccc(-c2cc(Cc3n[nH]c(=O)c4ccccc34)ccc2F)cc1 [Compound 205] | 0.008 |
| O=c1[nH]nc(Cc2cccc(-c3ccccn3)c2)c2ccccc12 [Compound 17] | 0.196 |
| O=c1[nH]nc(Cc2cccc(-c3ccc(F)cc3)c2)c2c(F)ccc(F)c12 [Compound 105] | 0.452 |
| O=C(NCc1ccco1)c1cccc(-c2csc(Cc3n[nH]c(=O)c4ccccc34)c2)c1 [Compound 227] | 0.191 |
| CCCCS(=O)(=O)Nc1ccc(-c2cc(Cc3n[nH]c(=O)c4ccccc34)ccc2F)cc1 [Compound 208] | 0.004 |
| CC(=O)c1cccc(-c2cncc(Cc3n[nH]c(=O)c4ccccc34)c2)c1 [Compound 106] | 0.751 |
| O=c1[nH]nc(Cc2ccc(F)c(-c3ccc(NS(=O)(=O)CC4CCCCC4)cc3)c2)c2ccccc12 [Compound 242] | 0.008 |
| CC(=O)c1ccc(-c2cc(Cc3n[nH]c(=O)c4c3CCCC4)ccc2F)cc1 [Compound 255, 4-(4′-Acetyl-6-fluoro-biphenyl-3-ylmethyl)-5,6,7,8-tetrahydro-2H-phthalazin-1-one] | 0.053 |
| CCCCS(=O)(=O)Nc1ccc(-c2cc(Cc3n[nH]c(=O)c4c3CCCC4)ccc2F)cc1 [Compound 257] | 0.033 |
| CC(=O)c1cccc(-c2csc(Cc3n[nH]c(=O)c4ccccc34)c2)c1 [Compound 224] | 0.924 |
| O=C(Cc1ccncc1)Nc1cccc(-c2cc(Cc3n[nH]c(=O)c4ccccc34)ccc2F)c1 [Compound 144] | 0.009 |
| O=c1[nH]nc(Cc2ccc(F)c(-c3ccc(CN4CCN(c5ccccn5)CC4)o3)c2)c2ccccc12 [Compound 233] | 0.026 |
| O=c1[nH]nc(Cc2cncc(-c3ccoc3)c2)c2ccccc12 [Compound 115] | 0.404 |
| O=C(Nc1ccc(-c2cc(Cc3n[nH]c(=O)c4ccccc34)ccc2F)cc1)NC1CC1c1ccccc1 (centres unmarked) [Compound 199] | 0.041 |
| C[C@@H](CC(=O)Nc1ccc(-c2cc(Cc3n[nH]c(=O)c4ccccc34)ccc2F)cc1)c1ccccc1 [Compound 193] | 0.237 |
| O=c1[nH]nc(Cc2ccc(-c3ccnc(Cl)c3)cc2)c2ccccc12 [Compound 168] | 0.379 |

| SMILES | IC50 [µM] |
| --- | --- |
| O=c1[nH]nc(Cc2cncc(-c3cccc(CO)c3)c2)c2ccccc12 [Compound 107] | 0.198 |
| O=c1[nH]nc(Cc2ccc(F)c(-c3ccc(NS(=O)(=O)Cc4ccccc4)cc3)c2)c2ccccc12 [Compound 209] | 0.005 |
| O=C(c1cccc(-c2cc(Cc3n[nH]c(=O)c4ccccc34)ccc2F)c1)N1CCCN(CCO)CC1 [Compound 122] | 0.816 |
| O=c1[nH]nc(Cc2ccc(F)c(-c3cccc(NS(=O)(=O)c4cccc5nonc45)c3)c2)c2ccccc12 [Compound 151] | 0.036 |
| Nc1ccc(-c2cc(Cc3n[nH]c(=O)c4ccccc34)ccn2)cc1 [Compound 249, 4-[2-(4-Amino-phenyl)-pyridin-4-ylmethyl]-2H-phthalazin-1-one] | 0.0643 |
| CC(=O)Nc1cccc(-c2cccc(Cc3n[nH]c(=O)c4ccccc34)c2)c1 [Compound 23] | 0.018 |
| O=c1[nH]nc(Cc2cc(-c3ccoc3)cs2)c2ccccc12 [Compound 228] | 0.319 |
| O=C(CCN1CCCCC1)Nc1cccc(-c2cc(Cc3n[nH]c(=O)c4ccccc34)ccc2F)c1 [Compound 142] | 0.097 |
| O=c1[nH]nc(Cc2ccc(F)c(-c3ccc(NS(=O)(=O)c4ccc(F)cc4)cc3)c2)c2ccccc12 [Compound 206] | 0.014 |
| O=c1[nH]nc(Cc2ccc(-c3ccoc3)cc2)c2ccccc12 [Compound 174] | 0.309 |
| O=C(Nc1cccc(-c2cc(Cc3n[nH]c(=O)c4ccccc34)ccc2F)c1)NC1CC1c1ccccc1 (centres unmarked) [Compound 163] | 0.102 |
| O=c1[nH]nc(Cc2ccc(F)c(-c3ccco3)c2)c2c1CCCC2 [Compound 268, 4-(4-Fluoro-3-furan-2-yl-benzyl)-5,6,7,8-tetrahydro-2H-phthalazin-1-one] | 0.049 |
| N#Cc1ccc(S(=O)(=O)Nc2cccc(-c3cc(Cc4n[nH]c(=O)c5ccccc45)ccc3F)c2)cc1 [Compound 154] | 0.022 |
| Cc1nc(C)c(S(=O)(=O)Nc2cccc(-c3cc(Cc4n[nH]c(=O)c5ccccc45)ccc3F)c2)s1 [Compound 155] | 0.038 |
| Cc1oncc1S(=O)(=O)Nc1ccc(-c2cc(Cc3n[nH]c(=O)c4ccccc34)ccc2F)cc1 [Compound 214] | 0.01 |
| Cc1nc(C)c(S(=O)(=O)Nc2ccc(-c3cc(Cc4n[nH]c(=O)c5ccccc45)ccc3F)cc2)s1 [Compound 211] | 0.007 |
| CC(=O)c1cccc(-c2cccc(Cc3n[nH]c(=O)c4ccccc34)c2)c1 [Compound 34] | 0.284 |
| O=C(Cc1ccncc1)Nc1ccc(-c2cc(Cc3n[nH]c(=O)c4c3CCCC4)ccc2F)cc1 [Compound 267] | 0.025 |
